Assay results taken from US20240358818A1, “ANTIBODY-INDUCING POLYPEPTIDE AND VACCINE” (priority 2021, published 2024).

Tested on: pseudotyped lentivirus having the SARS-COV-2 spike protein
Format: cell-based
Conditions: mouse antiserum, final dilution 45-, 90-, 180-fold; FIG. 8

Row | Sequence | protection of ACE2-expressing CRFK cells from pseudovirus infection (luciferase activity)
1 | ELDSFKEELDKYFKNHTS (also: conjugate) [#111] | prevent pseudovirus infection in a concentration-dependent manner
2 | YGVSPTKLNDLCF (also: conjugate) [#5] | no inhibitory activity on pseudovirus infection was observed

No end group written: not given here.
